Among all 310,000 compounds or so, about 2,200 (0.71%) showed an effect of 50% or more. Effects have a minus sign here. Some of the results follow.
target: human ether-à-go-go-related gene (hERG) potassium channel (human, UniProt Q12809); assay: primary screen, population patch clamp on CHO cells stably expressing hERG
Sequence (Q12809 whole entry, looked up): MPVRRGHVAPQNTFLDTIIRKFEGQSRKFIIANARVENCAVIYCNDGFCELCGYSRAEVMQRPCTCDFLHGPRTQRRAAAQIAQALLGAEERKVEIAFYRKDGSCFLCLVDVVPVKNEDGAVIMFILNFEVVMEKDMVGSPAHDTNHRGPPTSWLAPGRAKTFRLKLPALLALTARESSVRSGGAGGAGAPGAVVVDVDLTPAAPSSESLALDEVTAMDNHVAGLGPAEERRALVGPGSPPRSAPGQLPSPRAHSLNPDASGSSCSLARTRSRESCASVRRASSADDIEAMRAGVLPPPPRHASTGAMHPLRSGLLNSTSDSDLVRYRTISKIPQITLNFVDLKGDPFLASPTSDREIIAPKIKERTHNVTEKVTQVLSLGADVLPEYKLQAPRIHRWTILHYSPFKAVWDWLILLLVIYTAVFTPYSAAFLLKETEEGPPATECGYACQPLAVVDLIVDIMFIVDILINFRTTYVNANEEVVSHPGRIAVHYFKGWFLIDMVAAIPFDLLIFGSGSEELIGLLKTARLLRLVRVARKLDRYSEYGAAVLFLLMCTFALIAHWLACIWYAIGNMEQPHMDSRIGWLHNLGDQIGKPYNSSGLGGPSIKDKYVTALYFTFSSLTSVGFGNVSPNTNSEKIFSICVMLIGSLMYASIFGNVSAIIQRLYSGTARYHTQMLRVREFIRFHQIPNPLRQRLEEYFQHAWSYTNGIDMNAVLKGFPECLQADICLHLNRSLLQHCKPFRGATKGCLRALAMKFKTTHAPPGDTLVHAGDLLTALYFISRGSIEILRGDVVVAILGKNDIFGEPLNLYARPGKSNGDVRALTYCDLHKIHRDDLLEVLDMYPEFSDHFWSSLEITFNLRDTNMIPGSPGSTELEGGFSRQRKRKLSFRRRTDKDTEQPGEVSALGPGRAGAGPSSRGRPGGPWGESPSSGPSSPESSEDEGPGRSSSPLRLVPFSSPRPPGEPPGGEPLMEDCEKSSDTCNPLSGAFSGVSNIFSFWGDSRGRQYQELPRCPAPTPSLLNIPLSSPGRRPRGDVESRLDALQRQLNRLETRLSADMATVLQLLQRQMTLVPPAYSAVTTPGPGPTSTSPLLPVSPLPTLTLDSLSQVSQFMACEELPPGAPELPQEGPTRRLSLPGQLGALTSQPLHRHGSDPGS

Compound	hERG current change (%, negative = inhibition) at 1uM
Cn1c(=O)c(-c2ccccc2N)nc2ccccc21	8.43%
CCOc1ccc(NC(=O)CCNC(=O)C2CCN(S(=O)(=O)c3ccccc3)CC2)cc1	9.17%
Cc1nc2ccc(NC(=O)c3cccc(S(=O)(=O)N4CC(C)OC(C)C4)c3)cc2s1 (stereo not shown)	12%
CN(CCOc1cccc2ccccc12)Cc1ccccc1.O=C(O)C(=O)O	8.2%
COC(=O)c1ccccc1NC(=O)N1CSC[C@H]1C(=O)OC	13.1%
Cc1cc(C(=O)COC(=O)Cc2n[nH]c(=O)c3ccccc23)c(C)n1-c1ccc2c(c1)OCCO2	11.7%
NC(=O)C1CCN(C(=O)c2ccc(Oc3ccccc3)cc2)CC1	-3.95%
CC(=O)OCC1OC(n2ncc(=O)n(Cc3ccccc3)c2=O)C(OC(C)=O)C1OC(C)=O (stereo not shown)	15.1%
C=CC(n1cncn1)C(O)(c1ccccc1)c1ccccc1 (stereo not shown)	11.7%
Cc1ccc(N(Cc2cc3ccccc3[nH]c2=O)C(=O)c2cccs2)cc1C	11.4%
CC(=O)Nc1cccc(CNCc2cccc(NC(C)=O)c2)c1	1.47%
CC(C)(C)OC(=O)NCc1nc(N)n[nH]1	16%
CCC(CC)C(=O)c1c[nH]c(C(=O)OC)c1	11.3%
CC(C)(C)NC(=O)COC(=O)c1ccc(NC(=O)CC#N)cc1	19.3%
COc1ccc(C2C3C(C)=NN=C3CC(C)(O)C2C(C)=O)cc1 (stereo not shown)	13.4%
O=C1c2ccccc2C(=O)N1CCCc1nc(-c2ccccc2)no1	1.14%
CN(Cc1ccon1)C(=O)CC1C(=O)NCCN1CC(C)(C)C (stereo not shown)	7.47%
O=C(O)/C=C/C(=O)NCC1CCC(CNC(=O)/C=C/C(=O)O)CC1 (stereo not shown)	7.54%
O=C(NC1(C(F)(F)F)NC(=O)N(Cc2cccnc2)C1=O)c1ccc(F)cc1 (stereo not shown)	-6.39%
CNC(=O)c1nc(C)n(-c2ccc([N+](=O)[O-])cc2)n1	22%
COc1ccc(CN2CCN(S(=O)(=O)c3ccc(F)cc3)CC2)cc1OC.O=C(O)C(=O)O	8.64%
COc1ccccc1CNC(=O)c1ccccc1NS(C)(=O)=O	-0.328%

Compound	hERG current change (%, negative = inhibition) at 1uM
CC(C)C1C(C#N)=C(N)Oc2n[nH]c(-c3ccccc3)c21 (stereo not shown)	10.7%
CCOc1ccccc1NC(=O)Cn1c(=O)c2ccccc2n(CC)c1=O	-4.54%
CCn1c(SC(C)C(=O)NC2CCCc3ccccc32)nnc1-c1cccs1 (stereo not shown)	-0.657%
Cc1nc(Cl)c(C(=O)NC(=O)Nc2cccc(C(F)(F)F)c2)c(C)c1[N+](=O)[O-]	7.05%
COc1ccc(S(=O)(=O)CCC(=O)N2CCN(c3ccc(F)cc3)CC2)cc1	-18.6%
CCc1nccn1CCC(=O)NC1CC(C)(C)Cc2c1cnn2-c1cccc(F)c1 (stereo not shown)	7.83%
O=C(CC(c1ccc(F)cc1)c1ccco1)N1CCOCC1 (stereo not shown)	-3.29%
COc1ccc(S(=O)(=O)Nc2ccc(OCC(=O)O)cc2)c2ccccc12	10.9%
CCc1nc2cccnc2n1-c1ccc(CC(=O)NC(C)CC)cc1 (stereo not shown)	12%
CC(c1ccccc1)N(CCC(c1ccccc1)C1CCOC(C)(C)C1)C(=O)c1ccco1 (stereo not shown)	0.237%
CC1CCc2c(sc3nc(CSc4n[nH]c(N)n4)[nH]c(=O)c23)C1 (stereo not shown)	-2.59%
COc1ccccc1N(C(=O)c1ccco1)C(C(=O)NC1CCCC1)c1ccc(N2CCOCC2)cc1 (stereo not shown)	5.57%
Cc1cccc(-n2c(O)c(C=Nc3ccc(Br)cn3)c(=O)[nH]c2=O)c1	12.5%
Cc1ccc(/C=C/C(=O)N2CCN(S(=O)(=O)c3cccs3)CC2)o1	3.34%
COc1ccc(S(=O)(=O)NCc2cccnc2)cc1NC(=O)c1ccc(Cl)cc1	-6.45%
NC(=O)c1ccc(NC(=O)COC(=O)/C=C/c2cn(-c3ccccc3)nc2-c2cccnc2)cc1	4.14%
O=C1CCC(C(=O)N2CCN(c3ccccc3)CC2)CN1CC1CCCCC1 (stereo not shown)	-1.01%
Cc1ccc2nc3c(cc(C#N)c(=N)n3Cc3cccnc3)c(=O)n2c1	-19.4%
CN(C(=O)COC(=O)c1ccc(Br)c([N+](=O)[O-])c1)c1c(N)n(Cc2ccccc2)c(=O)[nH]c1=O	6.43%
CC(C)Sc1nc2c(c(=O)[nH]c(=O)n2C)n1Cc1ccccc1	-3.17%
COc1cc(C(=O)NCC(=O)N/N=C(/C)c2ccc3c(c2)CCCC3)cc(OC)c1OC	1.14%
CSc1cccc(NC(=S)N2CCC(N(C)C3CCCCCC3)CC2)c1	-26.1%

Compound	hERG current change (%, negative = inhibition) at 1uM
COc1ccc(CC(=O)NC(C)(C)CC(C)=O)cc1OC	-3.81%
O=C(CN1C(=O)NC2(CCOc3ccccc32)C1=O)c1ccc(Cl)cc1 (stereo not shown)	2.89%
O=C(CN1CCN(c2ccc(F)cc2)CC1)Nc1ccc(F)c(F)c1	6.62%
CCOc1ccc(CN(C)C(=O)CNC(=O)c2sc3ccccc3c2Cl)cc1	4.08%
NC(=O)c1cc(-c2ccccc2)nc(Oc2ccccc2)n1	10.5%
C=CCn1c(SCc2ccc([N+](=O)[O-])cc2)nnc1C(C)NC(=O)c1ccccc1 (stereo not shown)	-43.4%
CCOC(=O)CSc1nc2c(c(=O)n(C)c(=O)n2C)n1Cc1ccccc1F	-5.45%
CCn1c(CNC(=O)c2cccc(C)c2)nnc1SCC(=O)NC1CCCC1	7.81%
CC(C)c1nc2oc3c(N(C)CCO)ncnc3c2c2c1CCC2	-15%
CC1(C)CC2CC(C)(CN2C(=O)c2cc(-c3ccc(O)cc3)on2)C1 (stereo not shown)	4.53%
Fc1cc(F)c2nc(Nc3nc4cc5c(cc4s3)OCO5)sc2c1	14.2%
Oc1ccc(/C=C/c2ccc3cccc(O)c3n2)cc1Br	7.42%
Cc1c(Cl)cccc1NS(=O)(=O)c1cccc2nsnc12	6.9%
Clc1cccc(NCc2nnc(SCc3ccccc3Cl)o2)c1	8.28%
CCN(CC(=O)Nc1ccccc1C(F)(F)F)C(=O)C1CCN(C(=O)Nc2ccccc2)CC1	9.8%
Cc1ccc(SCC(=O)Nc2nccs2)cc1	-6.15%
CNc1nc(C)cc(C)c1S(=O)(=O)c1ccc(C)cc1	9.33%
CCOc1ccc(NC(=O)COC(=O)C2(C)CC2(Cl)Cl)c([N+](=O)[O-])c1 (stereo not shown)	5.04%
CC(C)C(=O)Nc1ccc(C(=O)NCc2cccnc2)cc1	10.3%
O=C(N/N=C/c1ccc(O)cc1)c1ccc(NC(=O)c2ccccc2Br)cc1	4.68%
O=C(c1cc2ccccc2o1)N1CCN(S(=O)(=O)c2ccc(F)c(F)c2F)CC1	5.61%
c1ccc2c(N3CCCC3)nc(-c3ccncc3)nc2c1	1.09%

Compound	hERG current change (%, negative = inhibition) at 1uM
CC1(C)Cc2c(c(N3CCOCC3)nc3sc4c(NCCN5CCOCC5)nnnc4c23)CS1	12.8%
O=C(N/N=C/c1c[nH]c2ccccc12)c1ccn(Cc2ccc(Cl)cc2Cl)n1	13.7%
Cc1ccc(C(=O)NCC(=O)OC(C)C(=O)Nc2ccc(N(C)C)cc2)cc1C (stereo not shown)	-2.2%
O=c1c(Cl)c(NCc2ccc(F)cc2Cl)cnn1C12CC3CC(CC(C3)C1)C2	21.3%
Cc1ccccc1C(=O)N1CCC(C(=O)Nc2cccc(F)c2)CC1	2.79%
CC(C)[C@H](CO)N(Cc1cccc(F)c1)c1nc(Nc2cccc(Cl)c2)c2ncn(C(C)C)c2n1	6.75%
COCCNC(=O)CN(C(=O)c1ccc(N2CCCC2)nc1)c1ccc(F)c(Cl)c1	11.2%
Cc1cc(C(=O)CN2C(=O)NC3(CCCCC3)C2=O)c(C)n1-c1ccc2c(c1)OCO2	5.94%
CC1(C)Cc2c(C#N)c(SCC(=O)c3ccccc3)nc(N3CCOCC3)c2CO1	7.44%
N#Cc1nc(NCC(F)F)nc(Nc2cc(F)cc(F)c2)n1	3.23%
COc1ccc(/C=N/n2c(SC)nnc2-c2ccccc2)cc1C	7.63%
Cc1cc(=O)n2[nH]c(SCc3ccc(Cl)cc3)nc2n1	-0.335%
Cc1cccc(C)c1OC(=O)CN(c1ccc(Cl)cc1)S(C)(=O)=O	14.2%
COc1cc(NC(=O)CN2CCCCC2)c(C)cc1[N+](=O)[O-]	5.81%
O=C(c1ccc(Cl)cc1)N1CCC2(CC1)OCCO2	15.6%
Cc1ccc(NC(=O)CCC(=O)NNC(=O)NC23CC4CC(CC(C4)C2)C3)cc1C	2.58%
CNC(=O)CCN(Cc1ccco1)S(=O)(=O)c1ccc(OC)c(OC)c1	10.2%
CCOC(=O)N1CCc2c(sc(NC(=O)c3ccc(Cl)s3)c2C(N)=O)C1	10.2%
Cc1ccc(-c2nc3cccnc3s2)cc1NS(=O)(=O)c1ccc2c(c1)OCCO2	1.63%
